The list shows a part of the results.

The results in this text go back to article PMC12136788.

T1: UNK ZnF1-3 (human, UniProt Q9C0B0 31-174)
T1 sequence: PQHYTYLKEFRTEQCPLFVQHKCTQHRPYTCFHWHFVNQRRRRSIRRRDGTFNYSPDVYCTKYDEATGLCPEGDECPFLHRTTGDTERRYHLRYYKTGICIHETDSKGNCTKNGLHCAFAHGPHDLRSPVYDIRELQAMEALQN

B1: 118866371_118866491_1417_3pUTR_ENSG00000125629_ENST00000245787|human|control|control (ssRNA)
RNA: GGGAGUUCUACAGUCCGACGAUCUCAUUUUCACCCUGUAUCAAAACACUCCAAACUCUAUGAAACAACAUUAAAUUAGAAACUAACCACAAAUUAGGGCACUCAUAACUCAUACUGCUGUGAUUAGAAAAAUAAAAAGGCACACAACAGAGGAUUGAGCAUCA
B2: chr2:157388187:157388188:+_ENSMUSG00000067786_ENSMUST00000109526|mus_hu|FALSE|FALSE (ssRNA)
RNA: GGGAGUUCUACAGUCCGACGAUCUUUUGUAGAGGUGGUCCCUGUCCUCCAGGAGCUUACAAUCUAGCUGGGGAGACACAACUAAUGCACACUUAAACAAUCAGUACAAUUAGCGAUUACCACAAUAUUGACCACAACUGCAUGCAACAGAGGAUUGAGCAUCA
B3: chr12:100720429:100720430:+_ENSG00000136021_ENST00000360820|hu_mus|motif|central (ssRNA)
RNA: GGGAGUUCUACAGUCCGACGAUCGAAGGGUAGGAUAUCAUCAAGCACAAACCACUUAUCCAGGUACUCCAGGAUCUUCCCGGAGCACACUAAUGAAUUCACACGGACAGCAAGGGAAGACGUUUGUAAACAGGCAUUUUUAAUCAACAGAGGAUUGAGCAUCA
B4: 100764764_100764973_1268_CDS_ENSMUSG00000004040_ENSMUST00000127638|mouse|control|control (ssRNA)
RNA: GGGAGUUCUACAGUCCGACGAUCCUUGAUGACUAAGGGCCGGUCCGGGUGCAUGGGCAUGCAGGGCUGCCGCUCCACCACGAAGGCACUCUUCAUUAAGUUUCUGAACAGCUCCACGAUCCUCUCCUCCAGCAUGGGCCGGUGCAACAGAGGAUUGAGCAUCA
B5: chr8:104061119:104061120:+_ENSG00000155097_ENST00000518738|hu_hu|motif|central (ssRNA)
RNA: GGGAGUUCUACAGUCCGACGAUCCAGAUUCUCUUGAACUUUGUCUUUGCUAUCUUCCAAUACAUCAGCCAUGUAUUGAGCGGCUUUCUUAACCACUCCUUCUACAAAUGCAUCCAGUUUAGCCAGUUCAUCUGACAAGCCAACCAACAGAGGAUUGAGCAUCA
B6: chr13:33351070:33351071:+_ENSG00000083642_ENST00000315596|hu_hu|FALSE|FALSE (ssRNA)
RNA: GGGAGUUCUACAGUCCGACGAUCUGAUCCCACCUGAGCUGCUUUGAUAUAUGACAGCCUCUCAUAAUUACUGGUGUCACUAUUGUUGUAAAUGAAGAAUAGUUGAAUAUGGAGAGAUUAAGACACAAUUCAAAACACUUUUUACAACAGAGGAUUGAGCAUCA
B7: chr17:88387627:88387628:+_ENSMUSG00000005370_ENSMUST00000005503|mus_hu|FALSE|FALSE (ssRNA)
RNA: GGGAGUUCUACAGUCCGACGAUCAAAAUCAUCUCCAAAAAAAGUCUUCGUAAUGCAAGGAUGGCGUGAUCCUUUAAGCUCUAAGAAGGGGGGGGUAUCUUCCGGCAACAGAAUUACUGGGCGACACAUAGGACCAUCACCCCCCAACAGAGGAUUGAGCAUCA
B8: 64356606_64389926_236_CDS_ENSG00000118482_ENST00000393387|human|control|control (ssRNA)
RNA: GGGAGUUCUACAGUCCGACGAUCAUCCAUAAUAUCGUCAAGACCAACAACUGUUGAACAAGGCAUCUGGAAAUUGGGAUCAUUGCUAUCCAAAACAGGCAAACAGAACUGGUUACUUGCAGAUCCUAGCAUAGGAUCCUUAUCCAACAGAGGAUUGAGCAUCA
B9: chr10:61154807:61154808:+_ENSMUSG00000020088_ENSMUST00000020285|mus_mus|FALSE|FALSE (ssRNA)
RNA: GGGAGUUCUACAGUCCGACGAUCAACUCUUUCAUGAGGCAAAAGUCACUUUUUAUAUCUACAAUGGAAAAAAGGAAGGUGCUACACAGAGAGAUGAAAUUUCACAACAGUAUAAAAGCAAAGCCUGCUGAAACUGGUAACUGCCAACAGAGGAUUGAGCAUCA
B10: chrX:76939635:76939636:-_ENSG00000085224_ENST00000373344|hu_mus|FALSE|FALSE (ssRNA)
RNA: GGGAGUUCUACAGUCCGACGAUCUAACUUCAUAGCAGAAGUCAUUUCUGAAUUAUCUGCUGCCUGUUUUAGAAACUUAAUGUAACUGGAGUUCAUGUUGGAUGUAGUCUCAAUCAGUUUUGUUGUCUUCUUAAUCAUCUCUUUCAACAGAGGAUUGAGCAUCA
B11: 155054625_155055036_174_5pUTR_ENSG00000213079_ENST00000417268|human|control|control (ssRNA)
RNA: GGGAGUUCUACAGUCCGACGAUCAUGUUGUCGCUGCGGAGGCCCCGAGCCCGGCGGCGGAAGAGGCGGCGGCCACUGCACUGGGUGGGGAGAGCGAGACGCGGGCUGCUGCGUGGCCGCGAGGAGGGGGCGCUCCCCGCCGCUCAACAGAGGAUUGAGCAUCA
B12: chr2:217001844:217001845:+_ENSG00000079246_ENST00000392132|hu_hu|hu_hu_hu_mus_False|28_98 (ssRNA)
RNA: GGGAGUUCUACAGUCCGACGAUCACCAACUUGAGGAUUAGCUCUUUUGUCAUAAGCAUAUCGGACGAUGGCGACCAUGUUUAACUCAUCCAAAGCAUGAACGAGAGAGGAAAGUGCAACAGCUGCCGCCUCAUCAUCCUUUGCCAACAGAGGAUUGAGCAUCA
B13: chr7:99638656:99638657:+_ENSG00000106261_ENST00000324306|hu_mus|FALSE|FALSE (ssRNA)
RNA: GGGAGUUCUACAGUCCGACGAUCCUCUAUAUAAAUGUAGGCUUAUCAUGUUGACCUGGUUGUUAAUAAUAAUCCUUAACUGAAAGUUUAUAAAAAUACAACUUAAAAAUUUGCUUGCACAACCACCCUAACCCUUAACACUCGCAACAGAGGAUUGAGCAUCA
B14: chr15:41988372:41988373:+_ENSG00000174197_ENST00000570161|hu_hu|FALSE|FALSE (ssRNA)
RNA: GGGAGUUCUACAGUCCGACGAUCUGUCUCUUCCUGUUUCACAGUGACCCCUUCUGGGCACUCACCAAGUUCGUAGUCAUAAUCAUCUAGAGGUUCCUCUUUAAUAACAACAUUGAAGCUUCCGUUCUGGUCUAACGGUGAGGCCAACAGAGGAUUGAGCAUCA

The assay concerns the target T1, UNK ZnF1-3. Briefly: nsRBNS (natural sequence RNA bind-n-seq); RBNS binding buffer (assumed for nsRBNS): 25 mM Tris pH 7.5, 150 mM KCl, 3 mM MgCl2, 0.01% Triton X-100, 500 ug/ml BSA, 20 U/ml SUPERase-In, 4 C; UNK is unkempt and MSI1 is Musashi-1; names of the RNAs are library labels; protein concentration not given here; high values mean tight binding.
With B1, the binding signal was 1.75 enrichment R. In the case of B2 it was 1.59 enrichment R. In the case of B3 it was 1.4 enrichment R; in that of B4, 0.636 enrichment R; in that of B5, 0.723 enrichment R. In the case of B6 it was 2.2 enrichment R. B7 returned a binding signal of 1.25 enrichment R. B8 showed a binding signal of 0.999 enrichment R. Consider B9, for which the binding signal came to 1.42 enrichment R. Turning to B10, the binding signal was found to be 0.527 enrichment R.

As for B11, the binding signal was 1.13 enrichment R.

B12 came in with a binding signal of 1.88 enrichment R. B13: the binding signal was found to be 2.29 enrichment R. For the molecule B14, the binding signal worked out at 0.933 enrichment R.
